According to PubChem BioAssay AID360 (National Center for Advancing Translational Sciences (NCATS), 2006):
In all, about 48,000 compounds went through this assay and about 550 (1.1%) were called active. Inconclusive results (about 4%) are left out. Rule as the data show it: active = potency below about 15 µM; inconclusive = mostly about 16 µM to 33 µM; inactive = weaker than that. This is one part of the list.

Target: Lysosomal acid glucosylceramidase (Homo sapiens) (UniProt P04062)
Assay: Glucocerebrosidase;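 also: the screen sought inhibitors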
Settings: purified enzyme, resorufin glucoside fluorescence (screen aimed at inhibitors), 20 min; series mostly up to 77 µM
How it was run: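 Normal human glucocerebrosidase (0.2 nM final) was assayed with resorufin β-D-glucopyranoside (30 uM final) in 50mM citric acid/KH2PO4, 10mM sodium taurocholate, 0.01% tween-20, pH 5.9. Compounds were titrated; fluorescence (Ex 548, Em 600) read after 20 min at RT.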
Potency is read from the fitted curve at half-maximal effect.

UniProt P04062, sequence (P04062 whole entry, looked up): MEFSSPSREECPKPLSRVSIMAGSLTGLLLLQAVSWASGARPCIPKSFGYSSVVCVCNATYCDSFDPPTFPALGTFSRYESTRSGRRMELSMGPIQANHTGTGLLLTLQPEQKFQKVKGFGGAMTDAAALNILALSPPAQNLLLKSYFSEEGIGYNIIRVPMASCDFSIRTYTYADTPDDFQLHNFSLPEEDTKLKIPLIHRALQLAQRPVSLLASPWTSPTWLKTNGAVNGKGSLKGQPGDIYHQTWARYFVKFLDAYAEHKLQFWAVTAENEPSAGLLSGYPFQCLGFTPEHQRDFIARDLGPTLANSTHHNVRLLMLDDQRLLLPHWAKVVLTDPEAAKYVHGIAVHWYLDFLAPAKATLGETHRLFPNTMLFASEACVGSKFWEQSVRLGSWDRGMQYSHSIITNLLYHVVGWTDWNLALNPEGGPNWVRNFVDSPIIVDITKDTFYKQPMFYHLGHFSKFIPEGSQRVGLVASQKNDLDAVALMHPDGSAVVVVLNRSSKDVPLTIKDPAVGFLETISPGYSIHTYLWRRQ

Potency, inactive:
NCCCCCc1nnc(SC/C=C/c2ccccc2)o1 > 76.9 µM
CCn1c(CSc2nnc(-c3ccc4c(c3)OCO4)o2)nc2cc(S(=O)(=O)N(C)C)ccc21 > 76.9 µM
CC1CCN(C(=O)CCNS(=O)(=O)c2ccccc2)CC1 > 76.9 µM
Cc1cc(C)n(-c2nc(SCC(=O)N3CCCC3)c3c4c(sc3n2)CCCC4)n1 > 76.9 µM
COC(=O)C1CCN(S(C)(=O)=O)CC1 > 76.9 µM
O=C(NCc1nc(-c2ccccc2)no1)c1cccs1 > 76.9 µM
Cc1cccc(OCC(=O)Nc2ccc(N3CCN(S(C)(=O)=O)CC3)cc2)c1C > 76.9 µM
CCOc1ccccc1C(=O)N1CCCCC1C (stereo not drawn) > 76.9 µM
O=S(=O)(Cc1ccccc1)N1CCC(c2nc(-c3cccs3)no2)CC1 > 76.9 µM
CC(CN1CCN(C)CC1)OC(=O)c1ccccc1Cl (stereo not drawn) > 76.9 µM
O=c1c(F)cn(C2CCCO2)c(=O)n1Cc1c(F)cccc1Cl (stereo not drawn) > 76.9 µM
O=S(=O)(c1cccc2c(S(=O)(=O)N3CCCC3)cccc12)N1CCCC1 > 76.9 µM
CCc1nc(SCC(=O)NCC2CCCO2)c2oc3ccccc3c2n1 (stereo not drawn) > 76.9 µM
O=C(c1cccnc1)N1CCC(c2nc3ccccc3[nH]2)CC1 > 76.9 µM
Cc1cccc(Cl)c1OCCCCn1ccnc1 > 76.9 µM
Nc1c(-c2ccc(Cl)cc2)nnn1-c1ccccc1 > 76.9 µM
CCN(CC)CCNC(=O)C1CCC(=O)N1CCc1ccccc1 (stereo not drawn) > 76.9 µM
Cc1ccc(C(=O)C2CCNCC2)cc1 > 76.9 µM
CCC(C)c1ccc(OCC(=O)O)cc1 (stereo not drawn) > 76.9 µM
O=C(NCCc1ccccc1)c1cc(-c2ccc3c(c2)OCO3)on1 > 76.9 µM
O=c1c2c(nc3c(-c4cccc5ccccc45)c[nH]n13)CCC2
O=C(Nc1ccccc1Cl)c1cc(S(=O)(=O)N2CCCC(C(=O)O)C2)ccc1F (stereo not drawn) > 76.9 µM
CCSCC1COC(c2cccn2Cc2ccc(C)cc2)=N1 (stereo not drawn) > 76.9 µM
C=CCn1c(SCC(=O)Nc2cc(C)ccc2OC)nnc1-c1ccco1 > 76.9 µM
Cn1nnc(NC(=O)c2ccco2)n1 > 76.9 µM
Cc1nnc(SCC(=O)N2CCCCC2)s1 > 76.9 µM
COc1cc2c(cc1NC(=O)CN1C(=O)NC3(CCc4ccccc43)C1=O)oc1ccccc12 (stereo not drawn) > 76.9 µM
N#CC1=C(N)OC2=C(CCC/C2=C/c2ccoc2)C1c1ccoc1 (stereo not drawn) > 76.9 µM
CCN(CC)c1ccc(CN(C(=O)c2cc(OC)c(OC)c(OC)c2)C2CCS(=O)(=O)C2)cc1 (stereo not drawn) > 76.9 µM
C=C(C)COc1ccc(-c2[nH]ncc2Oc2ccccc2OC)c(O)c1 > 76.9 µM
O=C(Nc1ccc(S(=O)(=O)NCCc2ccccc2)cc1)c1ccco1 > 76.9 µM
Cc1ccc(C(=O)CC2(O)C(=O)N(Cc3ccccc3Cl)c3ccccc32)o1 (stereo not drawn) > 76.9 µM
COc1ccc(CC(=O)N2CCN(C(=O)c3ccco3)CC2)cc1 > 76.9 µM
Cc1ccccc1CS(=O)(=O)CCC(=O)NCc1ccccn1 > 76.9 µM
CC1(C)CC(=O)C(C=NCc2ccc3c(c2)OCO3)=C(O)C1 > 76.9 µM
CCCC(=O)Nc1ccc2c(c1)nc1n2CCSC1 > 76.9 µM
CNC(=O)CN(C#N)c1nc(N(C)C)nc(N(C)C)n1 > 76.9 µM
COc1cccc(-c2nnc(N(C)C(=O)C3CCOC3)s2)c1 (stereo not drawn) > 76.9 µM
O=c1c2c(n3nnnc3n1-c1ccccc1)-c1ccccc1CC21CCCC1 > 15.4 µM
CC/C(=C\C(=O)c1cccnc1)Nc1ccc(C)c(C)c1 > 76.9 µM
CC(=O)Nc1cccc(NC(=O)C2CCCN2C(=O)Nc2ccc(C)cc2)c1 (stereo not drawn) > 76.9 µM
CC1Cc2nc(SCC(=O)NC3CCCCC3)n(C)c(=O)c2S1 (stereo not drawn) > 76.9 µM
COc1ccc(S(=O)(=O)Nc2c(C(=O)O)[nH]c3ccccc23)c(OC)c1 > 76.9 µM
O=C(Cc1cccs1)Nc1ccon1 > 76.9 µM
CCC(C)NC(=O)c1ccccc1NC(=O)C(C)N(c1ccccc1)S(C)(=O)=O (stereo not drawn) > 76.9 µM
CCCCN1C(=O)c2ccc(C(=O)Nc3cccnc3)cc2C1=O > 76.9 µM
Cn1c(SCc2cccnc2)nc2cccnc21 > 76.9 µM
Cc1cc(C)n2nc3nc(N4CCCCC4)nc(-c4ccco4)c3c2n1 > 76.9 µM
CC(C(=O)N=c1sc2ccccc2n1C)N1C(=O)C2CC=CCC2C1=O (stereo not drawn) > 76.9 µM
CCOC(=O)Cc1csc(NC(=O)CCS(=O)(=O)Cc2ccccc2)n1 > 76.9 µM
COc1ccc(N=C2SC(CC(=O)Nc3ccc(OC)cc3OC)C(=O)N2C)cc1 (stereo not drawn) > 76.9 µM
CCCCn1c(=O)c(-c2ccccc2)c(O)c2ccccc21 > 76.9 µM
FC(F)Sc1nnc(-c2cccs2)n1-c1ccccc1 > 76.9 µM
Cc1ccc2ncccc2c1NS(=O)(=O)c1ccccc1 > 76.9 µM
CSCC[C@H](NC(=O)OC(C)(C)C)C(=O)N1CCC(C(=O)N[C@@H](C)C(=O)O)CC1 > 76.9 µM
O=C(c1cc2ccccc2o1)c1cccs1 > 76.9 µM
CCOC(=O)c1ccc(N2C(=O)CC(N3CCN(C(=O)c4ccco4)CC3)C2=O)cc1 (stereo not drawn) > 76.9 µM
CC1CN(C(=O)CN2C(=O)NC(C)(c3ccccc3)C2=O)CC(C)O1 (stereo not drawn) > 76.9 µM
Cc1ccnc(NS(=O)(=O)c2ccccc2)n1 > 76.9 µM
C/C(N)=C(/C#N)C(=O)CSc1nc2ccc(C)cc2[nH]1 > 76.9 µM
O=C(Nc1ccc(N2CCOCC2)cc1)c1cnsn1 > 76.9 µM
CCOc1cc2[nH]c(=S)n(Cc3ccc(C)o3)c(=O)c2cc1OCC > 76.9 µM
Cc1ccc(-c2nnc(-c3ccc(NC(=O)c4ccco4)cc3)o2)cc1 > 76.9 µM
CCc1ccc2oc(=O)cc(CN(C)Cc3ccccc3)c2c1 > 76.9 µM
CCCn1c(SCC(=O)N2CCCc3ccccc32)nc2c1c(=O)n(C)c(=O)n2C > 76.9 µM
CCOC(=O)Cc1csc(NC(=O)c2cnc3scc(C)n3c2=O)n1 > 76.9 µM
N#Cc1ccc(NC(=O)COC(=O)C2=COCCO2)cc1 > 76.9 µM
Cc1ccc2[nH]c(C(=O)O)c(-c3ccccc3)c2c1 > 76.9 µM
COc1ccccc1OCC(=O)NCC1CCCCC1 > 76.9 µM
O=C(O)c1ccc2c(c1)NC(=O)C(N1CCCC1)S2 (stereo not drawn) > 76.9 µM
CCOc1ccc(CCNC(=O)C2CCN(c3ccc(N4CCOCC4)nn3)CC2)cc1OCC
O=C(NCc1ccccn1)c1cc2cc(Br)ccc2oc1=O > 76.9 µM
COc1ccc(CN2C(=O)c3ccccc3C2C(=O)NCC2CCCO2)c(OC)c1 (stereo not drawn) > 76.9 µM
CC(CCc1ccccc1)NC(=O)CSc1nccc(=O)[nH]1 (stereo not drawn) > 76.9 µM
Cc1cccc(Nc2nc3c(c(=O)n(C)c(=O)n3C)n2CC(O)CO)c1 (stereo not drawn) > 76.9 µM
CCC(=O)Nc1cccc(-n2nnnc2SCC(=O)NCc2ccco2)c1 > 76.9 µM
CCOc1ccc(-n2c(Cc3cc(=O)[nH]c(=O)[nH]3)nnc2SCC(N)=O)cc1 > 76.9 µM
O=C(c1cccs1)N(Cc1cccc(Cl)c1)C1CCS(=O)(=O)C1 (stereo not drawn) > 76.9 µM
CCOC(=O)C1=C(c2ccccc2)Nc2ncnn2C1c1ccccn1 (stereo not drawn) > 76.9 µM
O=C(CCn1c(=O)sc2ccccc21)NC1=NCCS1 > 76.9 µM
O=C(NC1CCCc2ccccc21)C1CCN(S(=O)(=O)N2CCCCCC2)CC1 (stereo not drawn) > 76.9 µM
CN(C(=O)c1ccccn1)c1nnc(-c2cccnc2)s1 > 76.9 µM
COc1ccc(C(C)NC(=O)c2ccoc2C)cc1OC (stereo not drawn) > 76.9 µM
Cc1nnc(SCC(=O)Nc2ccccc2NC(=O)CSc2nnc(C)s2)s1 > 76.9 µM
CCOC(=O)/C=C1\Nc2ccccc2SC1=O > 76.9 µM
COc1ccc(NS(=O)(=O)c2ccc(OCC(=O)N3CCCC3)cc2)cc1 > 76.9 µM
Cc1cc(C)nc(Nc2ncc(O)n2-c2ccc(C)c(Cl)c2)n1 > 76.9 µM
COc1ccc(C2C3=C(N=C4SCC(=O)N42)c2ccccc2CC3)cc1 (stereo not drawn)
CC1NC(=O)NC1CCCCCC(=O)NCCc1ccccc1 (stereo not drawn) > 76.9 µM
CCCN1C(=O)C(O)(C2CC(=O)CC(C)(C)O2)c2ccccc21 (stereo not drawn) > 76.9 µM
Cc1ccc2[nH]c3c(NCCCN4CCCC4=O)ncnc3c2c1 > 76.9 µM
CC(c1ccccc1)C1CC(=O)N(CC(=O)O)C1=O (stereo not drawn) > 76.9 µM
COC(=O)c1[nH]c2ccc(C)cc2c1NC(=O)CN1CCC(C)CC1 > 76.9 µM
